Results taken from the supplement of paper PMC9588766.
Counter-ions that a name gives are not always drawn. Whole data set: some 1,900 compounds, median “cell viability of compound + 1 nM pemigatinib relative to pemigatinib-only (DMSO) wells” near 0.95, cut for the lowest 2% near 0.22. The list shows a part of the results.

System: PDC-DUC18828
Experiment: cell viability of compound + 1 nM pemigatinib relative to pemigatinib-only (DMSO) wells (fraction); PDC-DUC18828 is a patient-derived cholangiocarcinoma cell line; higher = less growth inhibition
Details: first compound 1 µM; pemigatinib concentration 1 nM; 72 h
Experimental: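 Selleck Bioactive library screen in the patient-derived FGFR2 fusion-positive ICC cell line PDC-DUC18828 (500 cells/well). Each compound was tested at 1 uM with 1 nM pemigatinib, in triplicate, for 72 h. Viability was read by CellTiter-Glo and normalised to plate DMSO controls. Value is the paper's averaged normalised viability.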

SMILES	cell viability
C[N+](C)(C)CCO.[Cl-] [Choline Chloride] + CCN1C(=O)N(c2c(F)c(OC)cc(OC)c2F)Cc2cnc3[nH]c(CN4CCOCC4)cc3c21 [pemigatinib]	1.03
O=c1[nH]cnc2[nH]ncc12 [Allopurinol Sodium] + CCN1C(=O)N(c2c(F)c(OC)cc(OC)c2F)Cc2cnc3[nH]c(CN4CCOCC4)cc3c21 [pemigatinib]	1.02
CCOC(=O)[C@H](CCc1ccccc1)N[C@@H](C)C(=O)N1Cc2cc(OC)c(OC)cc2C[C@H]1C(=O)O [Moexipril HCl] + CCN1C(=O)N(c2c(F)c(OC)cc(OC)c2F)Cc2cnc3[nH]c(CN4CCOCC4)cc3c21 [pemigatinib]	0.981
Cn1c(Nc2ccc(C(F)(F)F)cc2)nc2cc(Oc3ccnc(-c4ncc(C(F)(F)F)[nH]4)c3)ccc21 + CCN1C(=O)N(c2c(F)c(OC)cc(OC)c2F)Cc2cnc3[nH]c(CN4CCOCC4)cc3c21 [pemigatinib]	0.943
COC(=O)C1=C(C)NC(C)=C(C(=O)OC(C)C)C1c1cccc2nonc12 (stereo not drawn) [Isradipine] + CCN1C(=O)N(c2c(F)c(OC)cc(OC)c2F)Cc2cnc3[nH]c(CN4CCOCC4)cc3c21 [pemigatinib]	0.992
CC(=O)SCC(Cc1ccccc1)C(=O)NCC(=O)OCc1ccccc1 (stereo not drawn) [Racecadotril] + CCN1C(=O)N(c2c(F)c(OC)cc(OC)c2F)Cc2cnc3[nH]c(CN4CCOCC4)cc3c21 [pemigatinib]	0.965
C[C@H](CCC(=O)O)[C@H]1CC[C@H]2[C@@H]3CC[C@@H]4C[C@H](O)CC[C@]4(C)[C@H]3CC[C@]12C [Lithocholic acid] + CCN1C(=O)N(c2c(F)c(OC)cc(OC)c2F)Cc2cnc3[nH]c(CN4CCOCC4)cc3c21 [pemigatinib]	0.869
O=C(/C=C/N1C[C@H]2C[C@@H]1CN2c1ccccn1)c1ccccc1O + CCN1C(=O)N(c2c(F)c(OC)cc(OC)c2F)Cc2cnc3[nH]c(CN4CCOCC4)cc3c21 [pemigatinib]	1.06
CCOC(=O)Nc1ccc(NCc2ccc(F)cc2)nc1N [Flupirtine maleate] + CCN1C(=O)N(c2c(F)c(OC)cc(OC)c2F)Cc2cnc3[nH]c(CN4CCOCC4)cc3c21 [pemigatinib]	0.954
O=C(O)CCCC[C@@H]1SC[C@@H]2NC(=O)N[C@@H]21 [Biotin (Vitamin B7)] + CCN1C(=O)N(c2c(F)c(OC)cc(OC)c2F)Cc2cnc3[nH]c(CN4CCOCC4)cc3c21 [pemigatinib]	0.904
CCOc1cc(C(C)(C)C)ccc1C1=N[C@@](C)(c2ccc(Cl)cc2)[C@@](C)(c2ccc(Cl)cc2)N1C(=O)N1CCN(CCCS(C)(=O)=O)CC1 + CCN1C(=O)N(c2c(F)c(OC)cc(OC)c2F)Cc2cnc3[nH]c(CN4CCOCC4)cc3c21 [pemigatinib]	0.892
CC(C)C(=O)Nc1ccc([N+](=O)[O-])c(C(F)(F)F)c1 [Flutamide] + CCN1C(=O)N(c2c(F)c(OC)cc(OC)c2F)Cc2cnc3[nH]c(CN4CCOCC4)cc3c21 [pemigatinib]	1.05
CC(=O)Oc1cc2c(s1)CCN(C(C(=O)C1CC1)c1ccccc1F)C2 (stereo not drawn) [Prasugrel] + CCN1C(=O)N(c2c(F)c(OC)cc(OC)c2F)Cc2cnc3[nH]c(CN4CCOCC4)cc3c21 [pemigatinib]	0.915
Cn1cnc([N+](=O)[O-])c1Sc1ncnc2[nH]cnc12 [Azathioprine] + CCN1C(=O)N(c2c(F)c(OC)cc(OC)c2F)Cc2cnc3[nH]c(CN4CCOCC4)cc3c21 [pemigatinib]	0.97
S=C(NCc1ccc2c(c1)OCO2)N1CCN(c2ncnc3c2oc2ccccc23)CC1 [Amuvatinib (MP-470)] + CCN1C(=O)N(c2c(F)c(OC)cc(OC)c2F)Cc2cnc3[nH]c(CN4CCOCC4)cc3c21 [pemigatinib]	0.988
OCCN1C[C@H](O)[C@@H](O)[C@H](O)[C@H]1CO [Miglitol] + CCN1C(=O)N(c2c(F)c(OC)cc(OC)c2F)Cc2cnc3[nH]c(CN4CCOCC4)cc3c21 [pemigatinib]	0.991
CC(=O)OCC[N+](C)(C)C [Acetylcholine Chloride] + CCN1C(=O)N(c2c(F)c(OC)cc(OC)c2F)Cc2cnc3[nH]c(CN4CCOCC4)cc3c21 [pemigatinib]	0.934
CC1(C)CCC2=C(O1)c1ccccc1C(=O)C2=O [Beta-Lapachone] + CCN1C(=O)N(c2c(F)c(OC)cc(OC)c2F)Cc2cnc3[nH]c(CN4CCOCC4)cc3c21 [pemigatinib]	0.803
Cc1cc(C)nc(SCC(=O)Nc2ncc(Cc3cccc4ccccc34)s2)n1 + CCN1C(=O)N(c2c(F)c(OC)cc(OC)c2F)Cc2cnc3[nH]c(CN4CCOCC4)cc3c21 [pemigatinib]	0.852

SMILES	cell viability
O=c1c2ccccc2nc2n1CCc1c-2[nH]c2ccccc12 [Rutaecarpine] + CCN1C(=O)N(c2c(F)c(OC)cc(OC)c2F)Cc2cnc3[nH]c(CN4CCOCC4)cc3c21 [pemigatinib]	0.957
O=C(O)C(S)=Cc1c[nH]c2ccc(F)cc12 + CCN1C(=O)N(c2c(F)c(OC)cc(OC)c2F)Cc2cnc3[nH]c(CN4CCOCC4)cc3c21 [pemigatinib]	0.99
O=C(/C=C/C=C/c1ccc2c(c1)OCO2)N1CCCCC1 [Piperine] + CCN1C(=O)N(c2c(F)c(OC)cc(OC)c2F)Cc2cnc3[nH]c(CN4CCOCC4)cc3c21 [pemigatinib]	0.951
CCC(=O)OCC(=O)[C@@]1(OC(=O)CC)[C@@H](C)C[C@H]2[C@@H]3CCC4=CC(=O)C=C[C@]4(C)[C@@]3(Cl)[C@@H](O)C[C@@]21C [Beclomethasone dipropionate] + CCN1C(=O)N(c2c(F)c(OC)cc(OC)c2F)Cc2cnc3[nH]c(CN4CCOCC4)cc3c21 [pemigatinib]	0.824
CN(C)CCCn1cc(C2=C(c3c[nH]c4ccccc34)C(=O)NC2=O)c2ccccc21 + CCN1C(=O)N(c2c(F)c(OC)cc(OC)c2F)Cc2cnc3[nH]c(CN4CCOCC4)cc3c21 [pemigatinib]	1
COc1nc(N)nc2c1ncn2[C@@H]1O[C@H](CO)[C@@H](O)[C@@H]1O [Nelarabine] + CCN1C(=O)N(c2c(F)c(OC)cc(OC)c2F)Cc2cnc3[nH]c(CN4CCOCC4)cc3c21 [pemigatinib]	0.956
O=C(Nc1cccc(Nc2ncc(Br)c(NCCc3cnc[nH]3)n2)c1)N1CCCC1 + CCN1C(=O)N(c2c(F)c(OC)cc(OC)c2F)Cc2cnc3[nH]c(CN4CCOCC4)cc3c21 [pemigatinib]	0.842
COc1ccccc1N1CCN(CCCNc2cc(=O)n(C)c(=O)n2C)CC1 [Urapidil HCl] + CCN1C(=O)N(c2c(F)c(OC)cc(OC)c2F)Cc2cnc3[nH]c(CN4CCOCC4)cc3c21 [pemigatinib]	0.967
C[C@@]1(c2cc(-c3cncnc3)c(F)cc2F)CCSC(N)=N1 + CCN1C(=O)N(c2c(F)c(OC)cc(OC)c2F)Cc2cnc3[nH]c(CN4CCOCC4)cc3c21 [pemigatinib]	1.05
C[C@H]1Oc2cc(cnc2N)-c2c(nn(C)c2C#N)CN(C)C(=O)c2ccc(F)cc21 + CCN1C(=O)N(c2c(F)c(OC)cc(OC)c2F)Cc2cnc3[nH]c(CN4CCOCC4)cc3c21 [pemigatinib]	0.926
O=C1NC(=O)[C@@H](c2cn3c4c(cccc24)CCC3)[C@@H]1c1c[nH]c2ccccc12 [Tivantinib (ARQ 197)] + CCN1C(=O)N(c2c(F)c(OC)cc(OC)c2F)Cc2cnc3[nH]c(CN4CCOCC4)cc3c21 [pemigatinib]	0.426
CCc1cnn2c(NCc3ccc[n+]([O-])c3)cc(N3CCCC[C@H]3CCO)nc12 + CCN1C(=O)N(c2c(F)c(OC)cc(OC)c2F)Cc2cnc3[nH]c(CN4CCOCC4)cc3c21 [pemigatinib]	0.286
C[C@H]1[C@H](OC(=O)CCC(=O)O)O[C@@H]2O[C@@]3(C)CC[C@H]4[C@H](C)CC[C@@H]1[C@@]24OO3 [Artesunate] + CCN1C(=O)N(c2c(F)c(OC)cc(OC)c2F)Cc2cnc3[nH]c(CN4CCOCC4)cc3c21 [pemigatinib]	0.705
CN(C)CCNC(=O)c1cccn2c(=O)c3cc4ccccc4cc3nc12 + CCN1C(=O)N(c2c(F)c(OC)cc(OC)c2F)Cc2cnc3[nH]c(CN4CCOCC4)cc3c21 [pemigatinib]	0.897
COC(=O)[C@H](CCSC)NC(=O)c1ccc(NC[C@@H](N)CS)cc1-c1ccccc1 + CCN1C(=O)N(c2c(F)c(OC)cc(OC)c2F)Cc2cnc3[nH]c(CN4CCOCC4)cc3c21 [pemigatinib]	0.876
CCOc1cc(N)c(Cl)cc1C(=O)NCC1CN(Cc2ccc(F)cc2)CCO1 (stereo not drawn) [Mosapride Citrate] + CCN1C(=O)N(c2c(F)c(OC)cc(OC)c2F)Cc2cnc3[nH]c(CN4CCOCC4)cc3c21 [pemigatinib]	0.988
CCC(C)n1ncn(-c2ccc(N3CCN(c4ccc(OCC5COC(Cn6cncn6)(c6ccc(Cl)cc6Cl)O5)cc4)CC3)cc2)c1=O (stereo not drawn) [Itraconazole] + CCN1C(=O)N(c2c(F)c(OC)cc(OC)c2F)Cc2cnc3[nH]c(CN4CCOCC4)cc3c21 [pemigatinib]	0.908
Cc1cccc(Nc2ccccc2C(=O)O)c1C [Mefenamic Acid] + CCN1C(=O)N(c2c(F)c(OC)cc(OC)c2F)Cc2cnc3[nH]c(CN4CCOCC4)cc3c21 [pemigatinib]	0.954
CC(C)(C(=O)NCC(F)(F)C(F)(F)F)C(=O)N[C@@H]1C(=O)Nc2ccccc2-c2ccccc21 + CCN1C(=O)N(c2c(F)c(OC)cc(OC)c2F)Cc2cnc3[nH]c(CN4CCOCC4)cc3c21 [pemigatinib]	1.07
